Laboratory results reported in article PMC3020946.
These are yes or no findings as the source states them, for the method shown. Binding seen in cells or lysates may run through a third protein. Some entries that bind do so weakly or less than the wild type.

Chains of the proteins cited; added tags and fusions are not shown. Lines headed by an entry give the natural chain unless they say otherwise; changes in a name come on top.
UniProt Q9WTX6: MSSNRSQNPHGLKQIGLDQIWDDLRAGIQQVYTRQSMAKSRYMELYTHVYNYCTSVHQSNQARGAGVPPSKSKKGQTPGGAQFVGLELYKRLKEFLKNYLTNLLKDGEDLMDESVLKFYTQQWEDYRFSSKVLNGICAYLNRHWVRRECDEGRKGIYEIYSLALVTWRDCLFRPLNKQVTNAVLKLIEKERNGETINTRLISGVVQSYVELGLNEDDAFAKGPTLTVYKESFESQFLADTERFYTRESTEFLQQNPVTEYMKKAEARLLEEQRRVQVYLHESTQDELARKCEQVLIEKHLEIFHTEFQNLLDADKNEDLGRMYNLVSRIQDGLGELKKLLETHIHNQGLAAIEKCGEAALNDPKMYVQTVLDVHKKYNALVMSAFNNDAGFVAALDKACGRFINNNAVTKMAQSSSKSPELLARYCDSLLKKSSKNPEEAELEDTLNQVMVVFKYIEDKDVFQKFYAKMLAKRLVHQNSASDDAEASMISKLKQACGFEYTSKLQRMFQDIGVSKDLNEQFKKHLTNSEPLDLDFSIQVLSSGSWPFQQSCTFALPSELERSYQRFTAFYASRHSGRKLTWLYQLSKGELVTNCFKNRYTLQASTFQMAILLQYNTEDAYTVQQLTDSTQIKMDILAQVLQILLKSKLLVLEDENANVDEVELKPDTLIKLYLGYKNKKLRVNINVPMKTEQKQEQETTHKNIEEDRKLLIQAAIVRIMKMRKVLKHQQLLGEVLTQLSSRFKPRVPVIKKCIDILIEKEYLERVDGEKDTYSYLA
UniProt Q13619: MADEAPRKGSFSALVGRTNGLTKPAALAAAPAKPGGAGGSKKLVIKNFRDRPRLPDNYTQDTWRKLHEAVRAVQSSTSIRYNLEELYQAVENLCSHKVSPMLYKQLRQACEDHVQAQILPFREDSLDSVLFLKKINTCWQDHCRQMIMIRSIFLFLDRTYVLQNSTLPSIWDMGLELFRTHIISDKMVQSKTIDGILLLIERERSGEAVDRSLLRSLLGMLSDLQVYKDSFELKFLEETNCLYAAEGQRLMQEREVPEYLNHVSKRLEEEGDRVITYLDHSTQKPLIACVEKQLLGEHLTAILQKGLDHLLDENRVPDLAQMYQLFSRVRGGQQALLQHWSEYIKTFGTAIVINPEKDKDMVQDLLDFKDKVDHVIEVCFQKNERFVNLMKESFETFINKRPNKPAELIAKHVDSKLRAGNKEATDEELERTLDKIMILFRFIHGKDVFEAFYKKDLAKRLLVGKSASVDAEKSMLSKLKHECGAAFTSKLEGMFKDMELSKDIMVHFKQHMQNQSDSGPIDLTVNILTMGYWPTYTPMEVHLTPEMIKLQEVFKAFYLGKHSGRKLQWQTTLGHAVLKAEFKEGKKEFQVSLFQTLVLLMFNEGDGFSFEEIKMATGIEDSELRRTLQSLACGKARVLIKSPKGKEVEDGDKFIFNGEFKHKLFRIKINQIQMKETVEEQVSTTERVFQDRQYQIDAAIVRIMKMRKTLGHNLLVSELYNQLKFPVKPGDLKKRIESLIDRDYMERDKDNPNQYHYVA
UniProt Q93034: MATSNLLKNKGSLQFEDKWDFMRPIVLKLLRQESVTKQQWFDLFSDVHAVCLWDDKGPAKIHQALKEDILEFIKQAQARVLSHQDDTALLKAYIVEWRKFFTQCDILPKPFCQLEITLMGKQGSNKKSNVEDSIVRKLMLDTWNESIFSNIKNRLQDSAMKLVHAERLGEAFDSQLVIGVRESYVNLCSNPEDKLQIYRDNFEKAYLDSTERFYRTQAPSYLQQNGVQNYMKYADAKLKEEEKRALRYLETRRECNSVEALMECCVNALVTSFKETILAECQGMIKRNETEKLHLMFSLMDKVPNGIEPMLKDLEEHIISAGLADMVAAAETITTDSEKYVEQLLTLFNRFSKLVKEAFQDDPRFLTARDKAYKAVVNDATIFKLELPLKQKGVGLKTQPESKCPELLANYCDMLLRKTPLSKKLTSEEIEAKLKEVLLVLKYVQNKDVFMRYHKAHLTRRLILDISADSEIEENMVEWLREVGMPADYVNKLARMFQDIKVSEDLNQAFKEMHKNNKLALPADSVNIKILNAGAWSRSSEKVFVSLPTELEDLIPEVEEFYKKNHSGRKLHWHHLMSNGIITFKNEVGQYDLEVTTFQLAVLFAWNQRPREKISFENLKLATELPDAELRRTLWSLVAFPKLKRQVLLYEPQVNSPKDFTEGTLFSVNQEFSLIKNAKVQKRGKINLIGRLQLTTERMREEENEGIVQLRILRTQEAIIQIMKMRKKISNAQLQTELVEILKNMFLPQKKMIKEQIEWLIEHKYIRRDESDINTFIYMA
UniProt Q13617: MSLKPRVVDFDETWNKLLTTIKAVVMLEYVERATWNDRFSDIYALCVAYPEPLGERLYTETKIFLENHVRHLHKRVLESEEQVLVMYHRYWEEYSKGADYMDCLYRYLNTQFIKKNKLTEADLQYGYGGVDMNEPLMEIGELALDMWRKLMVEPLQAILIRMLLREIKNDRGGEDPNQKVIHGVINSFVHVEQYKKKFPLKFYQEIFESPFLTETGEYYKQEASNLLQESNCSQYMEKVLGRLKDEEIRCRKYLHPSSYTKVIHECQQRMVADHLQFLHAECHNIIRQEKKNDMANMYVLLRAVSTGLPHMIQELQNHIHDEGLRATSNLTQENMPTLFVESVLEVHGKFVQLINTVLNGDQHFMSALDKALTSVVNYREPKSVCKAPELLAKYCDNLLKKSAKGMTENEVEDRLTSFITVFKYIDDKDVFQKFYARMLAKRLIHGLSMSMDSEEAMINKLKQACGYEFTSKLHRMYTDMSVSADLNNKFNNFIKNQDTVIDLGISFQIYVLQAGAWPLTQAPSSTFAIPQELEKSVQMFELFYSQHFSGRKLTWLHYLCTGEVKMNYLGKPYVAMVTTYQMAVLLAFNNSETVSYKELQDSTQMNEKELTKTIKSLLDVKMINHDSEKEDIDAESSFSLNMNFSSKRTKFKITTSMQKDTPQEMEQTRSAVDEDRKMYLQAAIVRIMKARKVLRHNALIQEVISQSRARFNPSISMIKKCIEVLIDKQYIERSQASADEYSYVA
UniProt Q92905: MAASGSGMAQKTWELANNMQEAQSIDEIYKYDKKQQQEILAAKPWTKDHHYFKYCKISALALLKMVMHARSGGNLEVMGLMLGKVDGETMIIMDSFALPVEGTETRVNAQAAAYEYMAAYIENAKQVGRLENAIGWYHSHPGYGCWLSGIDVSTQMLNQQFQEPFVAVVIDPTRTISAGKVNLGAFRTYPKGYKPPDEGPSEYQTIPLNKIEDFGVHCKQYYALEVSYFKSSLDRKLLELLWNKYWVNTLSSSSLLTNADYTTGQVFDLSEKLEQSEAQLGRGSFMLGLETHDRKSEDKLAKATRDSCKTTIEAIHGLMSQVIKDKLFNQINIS
UniProt Q86VP6: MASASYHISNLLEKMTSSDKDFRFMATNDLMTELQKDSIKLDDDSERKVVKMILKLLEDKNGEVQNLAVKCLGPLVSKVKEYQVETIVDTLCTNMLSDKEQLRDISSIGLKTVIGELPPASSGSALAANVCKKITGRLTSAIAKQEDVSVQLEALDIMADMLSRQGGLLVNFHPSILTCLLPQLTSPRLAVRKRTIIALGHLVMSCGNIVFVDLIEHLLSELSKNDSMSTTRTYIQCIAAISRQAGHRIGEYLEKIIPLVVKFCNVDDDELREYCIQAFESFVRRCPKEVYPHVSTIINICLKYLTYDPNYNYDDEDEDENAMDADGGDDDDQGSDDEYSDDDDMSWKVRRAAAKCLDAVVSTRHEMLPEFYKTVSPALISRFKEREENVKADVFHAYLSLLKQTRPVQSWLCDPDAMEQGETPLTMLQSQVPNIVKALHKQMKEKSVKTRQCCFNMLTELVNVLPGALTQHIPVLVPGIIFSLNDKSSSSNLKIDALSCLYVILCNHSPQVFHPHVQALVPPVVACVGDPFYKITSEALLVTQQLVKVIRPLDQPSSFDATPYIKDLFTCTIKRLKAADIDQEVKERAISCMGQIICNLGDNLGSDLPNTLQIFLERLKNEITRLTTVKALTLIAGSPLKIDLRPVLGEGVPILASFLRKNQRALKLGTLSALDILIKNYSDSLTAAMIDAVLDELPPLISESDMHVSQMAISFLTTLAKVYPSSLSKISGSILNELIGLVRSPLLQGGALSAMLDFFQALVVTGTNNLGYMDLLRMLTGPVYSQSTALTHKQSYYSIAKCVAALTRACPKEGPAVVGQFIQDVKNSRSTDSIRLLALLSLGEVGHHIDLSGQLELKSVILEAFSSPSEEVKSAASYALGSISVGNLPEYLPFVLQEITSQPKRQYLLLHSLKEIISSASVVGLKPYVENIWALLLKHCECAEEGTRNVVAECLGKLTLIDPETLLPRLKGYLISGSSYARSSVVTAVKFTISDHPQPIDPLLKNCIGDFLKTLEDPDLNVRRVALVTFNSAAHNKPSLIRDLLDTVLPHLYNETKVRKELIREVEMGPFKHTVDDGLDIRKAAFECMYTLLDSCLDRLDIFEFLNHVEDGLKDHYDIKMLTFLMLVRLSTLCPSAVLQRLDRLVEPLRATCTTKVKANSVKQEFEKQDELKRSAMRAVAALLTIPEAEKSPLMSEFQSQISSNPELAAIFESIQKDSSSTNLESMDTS
UniProt Q9Y297: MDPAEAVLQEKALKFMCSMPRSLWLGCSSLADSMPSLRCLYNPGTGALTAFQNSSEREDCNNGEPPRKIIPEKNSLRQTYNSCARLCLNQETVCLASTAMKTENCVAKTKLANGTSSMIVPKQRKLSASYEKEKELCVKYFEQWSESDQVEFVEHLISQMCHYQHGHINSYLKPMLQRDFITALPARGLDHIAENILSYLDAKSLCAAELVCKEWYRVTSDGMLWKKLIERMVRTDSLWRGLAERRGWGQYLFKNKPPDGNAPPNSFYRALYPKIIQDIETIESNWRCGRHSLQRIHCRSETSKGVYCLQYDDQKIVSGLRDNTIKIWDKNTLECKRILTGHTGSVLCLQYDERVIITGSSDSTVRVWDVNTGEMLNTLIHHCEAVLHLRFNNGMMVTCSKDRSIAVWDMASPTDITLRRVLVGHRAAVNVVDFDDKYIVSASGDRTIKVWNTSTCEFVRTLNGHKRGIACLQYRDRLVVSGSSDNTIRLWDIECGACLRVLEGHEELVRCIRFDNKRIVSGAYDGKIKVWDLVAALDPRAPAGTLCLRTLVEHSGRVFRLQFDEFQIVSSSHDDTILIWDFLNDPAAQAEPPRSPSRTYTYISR
UniProt P63208: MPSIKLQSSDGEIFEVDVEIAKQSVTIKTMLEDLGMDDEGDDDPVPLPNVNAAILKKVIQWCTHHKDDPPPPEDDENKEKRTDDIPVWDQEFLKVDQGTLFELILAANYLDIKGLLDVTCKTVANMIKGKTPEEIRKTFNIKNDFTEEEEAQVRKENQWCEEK

Columns and labels:
[1] = target: Cul1 carrying an N-terminal FLAG and a C-terminal V5 tag (mouse) (UniProt Q9WTX6); experiment: co-IP; HEK293 cells cotransfected with FLAG-Cul1-V5 and V5-tagged CAND1, β-TrCP or Skp2; total cell lysate; FLAG immunoprecipitation, Western blot with V5 antibody
[2] = target: K472E/R473E mutant Cul1-V5 (mouse) (UniProt Q9WTX6); experiment: co-IP; V5 immunoprecipitation of V5-tagged cullins from lysates of transfected HEK293 cells (in Fig. 2d dnUbc12 tet-on cells, induced with 1 µg/ml tetracycline for 24 hours); 4°C, 2 hours; washes in 50 mM Tris pH 7.5, 0.5% NP40, 5% glycerol, 0.5 mM EDTA, 50 mM NaCl; Western blot of the partners
[3] = target: full length Cul1-V5 (wild type) (mouse) (UniProt Q9WTX6); experiment: as above
Cul4a-V5 = Cul4a-V5 (UniProt Q13619); experiment: as above
Cul5-V5 = Cul5-V5 (UniProt Q93034); experiment: as above
Cul2-V5 = Cul2-V5 (UniProt Q13617); experiment: as above
[4] = target: full length Cul1-FLAG (mouse) (UniProt Q9WTX6); experiment: co-IP; FLAG immunoprecipitation of full length Cul1-FLAG from transfected dnCul1 tet-on cells (not induced) or cells with negative control or Skp1 siRNA (20 nM, three days); Western blot of endogenous Skp1, Skp2, CAND1
[5] = target: full length Cul1-V5 (wild type) (mouse) (UniProt Q9WTX6); experiment: co-IP; 10 µg recombinant GST-CAND1 transfected with TurboFect for one hour into cells expressing Cul1-V5 (with or without dnCul1-V5); V5 immunoprecipitation, Western blot with GST and V5 antibodies; only the binder purified
[6] = target: full length Cul1-FLAG (mouse) (UniProt Q9WTX6); experiment: condition: only with dnCul1-V5 induced (1 µg/ml tetracycline, 24 hours); co-IP; FLAG immunoprecipitation of full length Cul1-FLAG from dnCul1 tet-on cells with dnCul1-V5 induced by 1 µg/ml tetracycline during the last 24 hours; Western blot of endogenous proteins
[7] = target: Cul1 carrying an N-terminal FLAG and a C-terminal V5 tag (mouse) (UniProt Q9WTX6); experiment: co-IP; as the FLAG-Cul1-V5 immunoprecipitation, with cytoplasmic cellular fractions; data not shown

Substance	binding [1]	binding [2]	binding [3]	binding [4]	also measured
CSN5 subunit of the COP9 signalosome (CSN) (from UniProt Q92905 1-334)	–	no binding	binds	–	–
recombinant GST-CAND1 (from UniProt Q86VP6 1-1230)	–	–	–	–	binding [5]: binds
V5-tagged β-TrCP (from UniProt Q9Y297 1-605)	binds	–	–	–	binding [7]: binds

Now from value to substance, other results behind:

binding [1]	binding [2]	binding [3]	binding [4]	Substance	also measured
binds weakly	–	–	–	V5-tagged CAND1 (from UniProt Q86VP6 1-1230)	–
–	binds	binds	binds	endogenous CAND1 (from UniProt Q86VP6 1-1230)	binding (Cul4a-V5): binds; binding (Cul5-V5): binds; binding (Cul2-V5): binds
–	–	–	binds	endogenous Skp1 (from UniProt P63208 1-163)	binding [6]: no binding
